Assay results taken from PubChem BioAssay AID624417 (National Center for Advancing Translational Sciences (NCATS), 2012).
The whole screen tested about 410,000 compounds, of which about 6,400 (1.6%) were called active. Inconclusive means that the source gave no clear call. Such entries were picked first, then a sample of the others. Calls come from the whole dose curve; as a rule, active = well fitted inhibition curve with a large enough effect; inconclusive = small, poorly fitted or top-dose-only effect; inactive = no such curve, though single readings can be large or run the other way. Potencies of inconclusive entries are left out as doubtful fits.

Biological target: Glucagon-like peptide 1 receptor (Homo sapiens) (UniProt P43220)
Assay: qHTS of GLP-1 Receptor Inverse Agonists (Inhibition Mode); note: nearly all actives have a fitted effect of over 55% in size
Settings: HEK293 GLP-1R CRE-luciferase, luminescence, 24 h, GLP-1R form is constitutively active; series mostly up to 38.3 µM
Summary of the method: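 Assay principle: reduced luminescence from a cAMP-responsive reporter in HEK293 cells co-expressing a constitutively active GLP-1R. Conditions: 24 hr compound incubation, 37 deg C, 5% CO2.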
Potency is the fitted concentration of half-maximal effect; tags give direction and shape of the fitted curve.

Chain of UniProt P43220 (P43220 whole entry, looked up): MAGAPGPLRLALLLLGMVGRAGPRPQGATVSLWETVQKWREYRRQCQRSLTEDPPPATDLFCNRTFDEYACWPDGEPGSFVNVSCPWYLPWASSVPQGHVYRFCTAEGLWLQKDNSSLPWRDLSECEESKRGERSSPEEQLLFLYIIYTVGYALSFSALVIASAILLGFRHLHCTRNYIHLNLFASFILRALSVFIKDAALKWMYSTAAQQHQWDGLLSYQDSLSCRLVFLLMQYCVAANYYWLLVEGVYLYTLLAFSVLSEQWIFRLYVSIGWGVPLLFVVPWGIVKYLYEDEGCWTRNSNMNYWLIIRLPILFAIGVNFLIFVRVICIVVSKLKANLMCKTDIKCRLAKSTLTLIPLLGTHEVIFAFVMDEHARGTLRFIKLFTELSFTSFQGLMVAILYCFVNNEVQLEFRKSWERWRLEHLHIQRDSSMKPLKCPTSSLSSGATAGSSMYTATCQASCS

Structure (SMILES) | Potency
CCOC(=O)C1=C(C)N2C(=C(C#N)[C@@H]1c1ccc(C(=O)OC)cc1)SC[C@@]2(O)C(C)(C)C | inconclusive [inhibitor, full curve, poor fit]
CC(=O)Nc1ccc(S(=O)(=O)NCCC(=O)OCc2ccccc2F)cc1 | inactive
O=C(COc1ccc(Cl)cc1Cl)N(c1ccccn1)C1CCCCC1 | inconclusive [inhibitor, single point]
Cc1cc(C)n(-c2ccc(NC(=O)C3CCCCN3C(=O)c3cc(C)oc3C)cc2)n1 (stereo not drawn) | inconclusive [inhibitor, single point]
CCOC(=O)C1(CCOc2ccccc2)CCN(Cc2ccc3nonc3c2)CC1 | inconclusive [inhibitor, partial curve, poor fit]
Cc1nc2ccn(Cc3ccco3)c(=O)c2cc1C(=O)NCc1ccccc1 | inconclusive [inhibitor, full curve]
Cc1cc2cc(CNC(=S)NCc3ccccc3)ccc2n1C | inconclusive [inhibitor, single point]
CCCc1ccc(C(O)c2ncc(-c3ccc(C)cc3)[nH]2)cc1 (stereo not drawn) | inconclusive [inhibitor, partial curve, poor fit]
C#Cc1ccc([C@@H]2C=C(C(=O)NCc3ccccc3)O[C@H](OCC)[C@H]2CCCO)cc1 | inconclusive [inhibitor, partial curve, poor fit]
CCC1(c2ccccc2)NC(=O)N(CC(=O)Nc2ccc3c(c2)CCC3)C1=O (stereo not drawn) | inconclusive [inhibitor, partial curve, poor fit]
C#CCNc1nc(C(C)C)nc2c1nnn2Cc1ccccc1F | inconclusive [inhibitor, single point]
COc1ccc(-c2nnc(NC(=O)c3ccccc3C)o2)cc1 | active: 10 µM
CCOc1cc(/C=C/C(=O)Nc2ccc(C(=O)NCCN(CC)CC)cc2)ccc1OCC(C)C | inconclusive [inhibitor, single point]
Cc1cc(C(=O)OCC(=O)N(C)C2CCS(=O)(=O)C2)c(C)n1-c1ccccc1 (stereo not drawn) | inactive
C=CCN1c2ccccc2Sc2cnccc21 | inconclusive [inhibitor, partial curve, poor fit]
CCCCCOc1ccc(NS(C)(=O)=O)cc1 | inactive
Cc1ccc2c(c1)/C(=N/O)CCS2 | inconclusive [inhibitor, partial curve, poor fit]
Cc1ccc(S(=O)(=O)NC2CCCCC2)c(C)c1NS(C)(=O)=O | inactive
